# Several values for one entry are separate records, joined by “and”; a condition that tells them apart may be missing. Equal values may be shown once. Among all 48,000 compounds or so, about 1,200 (2.5%) were called active. Roughly 2% stayed inconclusive and do not appear here.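 The calls were made as follows: active = activation of at least 60% and not above a set upper limit (about 1 call in 100 departs from these limits); inconclusive = activation of 40% to 60%, or above that upper limit; inactive = activation under 40%.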 Some of the results follow.
# Target: Probable G-protein coupled receptor 32 (Homo sapiens) (UniProt O75388)
# Sequence of UniProt O75388 (O75388 whole entry, looked up): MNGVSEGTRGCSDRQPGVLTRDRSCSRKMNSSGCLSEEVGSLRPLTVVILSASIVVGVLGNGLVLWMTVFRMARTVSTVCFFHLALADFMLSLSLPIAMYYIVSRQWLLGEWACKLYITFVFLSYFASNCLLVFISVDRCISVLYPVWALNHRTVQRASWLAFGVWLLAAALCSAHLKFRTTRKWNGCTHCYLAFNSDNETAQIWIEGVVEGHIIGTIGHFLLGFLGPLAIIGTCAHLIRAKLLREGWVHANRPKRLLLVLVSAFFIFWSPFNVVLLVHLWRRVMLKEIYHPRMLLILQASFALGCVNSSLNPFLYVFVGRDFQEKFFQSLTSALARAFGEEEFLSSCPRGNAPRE
# Assay: qHTS for Agonists of Human Resolvin D1 Receptor DRV1; also: 0% is about no effect
# Conditions: CHO-K1 GPR32 beta-arrestin PathHunter luminescence, 90 min; at 76.9 µM; hits give high values; zero percent set by DMSO-only wells
# In short: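 Agonism was scored by beta-Gal fragment complementation (chemiluminescent read, 1 h detection at ambient temperature) reporting beta-arrestin binding to GPR32 in engineered CHO-K1 cells. Compound treatment lasted 90 min at 37 C, normalized to a DMSO basal control.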
row,Compound,activation
1,Cc1ccc(CN2CCC(CNC(=O)Nc3c(C)cccc3C)C2)cc1 (centres undefined),inactive: 6.23%
2,O=C(c1ccc(CS(=O)c2ccccc2Cl)o1)N1CCN(c2ccccc2F)CC1 (centres undefined),inactive: -0.928%
3,CN(C)CCN(Cc1ccc(Cl)cc1)c1ccccn1,inactive: 36.3%
4,COc1cccc(C(=O)N(Cc2cccc(Cl)c2)Cc2ccco2)c1,inactive: -3.01%
5,O=C(CCC1N=C2c3ccccc3N=C(SCc3cccc(Cl)c3)N2C1=O)NCc1cccs1 (centres undefined),inactive: -5.43%
6,CCC(=O)Nc1cccc(-c2cn3c(C)csc3n2)c1,inactive: 17.1%
7,COc1cc(C(=O)NCCSc2c(-c3ccccc3)[nH]c3ccccc23)cc(OC)c1OC,inactive: -16.6%
8,CC(C)(C)c1ccc(OCC(=O)Nc2c(C(=O)c3ccc(F)cc3)oc3ccccc23)cc1,inactive: -6.67%
9,NS(=O)(=O)Cc1noc2ccccc12,inactive: 5.4%
10,CCOC(=O)c1ccccc1NC(=O)CSc1ncc2c(n1)-c1ccccc1N(CC)S2(=O)=O,inactive: -1.15%
11,CCC(C)n1c(=N)c(S(=O)(=O)c2ccccc2)cc2c(=O)n3ccccc3nc21 (centres undefined),inactive: -7.23%
12,Cc1nn(C)c2c1c(-c1ccccc1)cc(=O)n2CC(=O)NC(C)(C)C,active: 91.5%
13,COc1cc2nc(SCc3ccc(F)cc3)n3nc(CCn4c(C)nc5ccccc54)nc3c2cc1OC,inactive: 11.2%
14,CCOc1ccccc1NC(=O)N1CCN(Cc2cc(=O)n3nc(-c4ccc(C)cc4)sc3n2)CC1,inactive: 17.6%
15,CCOc1ccc(S(=O)(=O)N(CC(=O)NCCSCc2ccccc2)c2ccccc2)cc1,inactive: -1.95%
16,O=C(c1ccc(CSc2nc3ccncc3n2Cc2ccccc2F)cc1)N1CCCCC1,inactive: -5.74%
17,CCOc1ccc(NC(=O)NCCCN2CCN(c3ccc(OC)cc3)CC2)cc1,inactive: -2.65%
18,Cc1c(CCC(=O)NCCc2ccccc2F)c(=O)oc2cc(O)ccc12,inactive: 49.3%
19,COc1ccc2c(c1)C(=O)N(CCc1ccc(S(=O)(=O)NC(=O)NC3CCCCC3)cc1)C(=O)C2(C)C,inactive: 2.59%
20,CN(C)c1ccc(/C=C(\C#N)c2nc3ccccc3c(=O)[nH]2)cc1,inactive: -4.45%
21,Cc1ccccc1NC(=O)Cn1c(=O)n(Cc2ccco2)c(=O)c2cccnc21,inactive: -21.9%

row,Compound,activation
1,Cc1ccc(-c2cc(C(=O)NCCc3ccccc3)c3ccccc3n2)cc1C,inactive: -19.8%
2,O=C(NCc1ccc(F)cc1)c1cccc(N2CCCS2(=O)=O)c1,inactive: 12.6%
3,O=C(NCCc1ccccc1)c1cc(-c2ccccc2)nc2n[nH]c(-c3ccccc3)c12,inactive: -14.7%
4,CCc1ccc2c(c1)c(=O)c(C(=O)c1ccc(C)cc1)cn2CC(=O)Nc1ccc2c(c1)OCCO2,inactive: -0.254%
5,CC(C)c1ccc(NC(=O)CNC(=O)Cn2ccc3ccccc3c2=O)cc1,inactive: 7.17%
6,Cc1ccc(Cl)cc1NC(=O)C1CCCN(S(=O)(=O)c2c(C)noc2/C=C/N(C)C)C1 (centres undefined),inactive: -23.8%
7,COC(=O)c1c(NC(=O)CCCOc2ccccc2)sc2c1CCC(C)C2 (centres undefined),inactive: 7.01%
8,CCC(=O)N1CCc2cc(S(=O)(=O)CCC(=O)N(C)c3ccc(OC)cc3)ccc21,inactive: 13.6%
9,Fc1ccc(C2=NC(c3cccc(C(F)(F)F)c3)=Nc3ccccc3N2)cc1,inactive: 15.8%
10,Cc1cc(Nc2cccc(Cl)c2)nc2ccc(NC(=O)c3ccc(F)cc3Cl)cc12,inactive: 11.8%
11,O=C(Nc1ccccc1C(=O)OCc1cc(=O)n2ccsc2n1)c1cccc(F)c1,inactive: -2.13%
12,Cc1ccc(S(=O)(=O)N2CCCc3cc(NC(=O)c4ccc(C(C)(C)C)cc4)ccc32)cc1,inactive: -7.79%
13,COc1cccc(-c2nc(CS(=O)(=O)CC(=O)NCCCc3ccccc3)c(C)o2)c1,inactive: -8.99%
14,Cc1ccc(CSc2ncccc2C(=O)O)cc1,inactive: 1.66%
15,Cc1nc(-c2ccc(F)cc2)sc1CCNC(=O)C(=O)Nc1ccc2c(c1)OCO2,inactive: 9.9%
16,CCOC(=O)c1cccc(NC(=O)NCc2ccc3c(c2)CCN3C(=O)CC)c1,inactive: -5.04%
17,CCN(CC)c1ccc(NC(=O)c2sc3nc(-c4ccccc4)cn3c2C)cc1,inactive: 1.99%
18,COc1ccc(N2CCN(C(=O)c3nn(C)c4c3CSc3ccccc3-4)CC2)cc1,inactive: -26.3%
19,Cc1ccc(Cl)cc1NC(=O)Cn1cc(S(=O)(=O)Cc2ccccc2Cl)c2ccccc21,inactive: -5.26%
20,CCC(=O)Nc1ccccc1-c1nc2ccccc2n(CC(=O)c2ccc(Br)cc2)c1=O,inactive: -3.06%
21,CC1=C(C(=O)Nc2cccc(C(F)(F)F)c2)C(c2ccccn2)n2ncnc2N1 (centres undefined),inactive: -8.5%

row,Compound,activation
1,CCCN(C(=O)NCc1noc2ccc(C)cc12)c1ccc(Cl)c(Cl)c1,inactive: -16.9%
2,CCc1ccc(C(=O)c2cn(CC(=O)Nc3ccc(OC)c(Cl)c3)c3nc(C)ccc3c2=O)cc1,inactive: 35%
3,O=C(Cn1c(SCCOc2ccccc2Cl)nc2ccccc21)N1CCCCC1,inactive: -17.7%
4,COc1ccc([C@@H]2Sc3ccccc3N(CCN(C)C)C(=O)[C@@H]2OC(C)=O)cc1,inactive: 9.05% and inactive: -5.05%
5,Cc1cc(C)cc(OCC(=O)NCC2(N3CCOCC3)CCCCC2)c1,inactive: -26.4%
6,Cc1cn([C@H]2C[C@H](N=[N+]=[N-])[C@@H](CO)O2)c(=O)[nH]c1=O,inactive: 0.553% and inactive: -2.74%
7,CCCc1cc(=O)[nH]c(SCc2nc(-c3ccc(OC)cc3)no2)n1,inactive: -7.74%
8,Cc1ccc(C)c(NC(=O)Cn2c(=O)n(Cc3ccco3)c(=O)c3ccc(C(=O)NC4CCCC4)cc32)c1,inactive: -25.5%
9,COc1ccc(CC(=O)NCCc2csc(-c3cccc(F)c3)n2)cc1OC,inactive: 27.7%
10,N#Cc1ccccc1Cn1c(=O)n(-c2ccc(F)c(Cl)c2)c(=O)c2sccc21,inactive: -5.66%
11,CCOC(=O)c1ccccc1NC(=O)c1sc2ncn(CC)c(=O)c2c1C,inactive: -0.697%
12,Cc1ccc(S(=O)(=O)Nc2cc3c(C(=O)OCc4ccccc4)c(C)oc3c3ccccc23)cc1,inactive: 3.89%
13,O=C(C1CCN(c2ncnc3c2nc2n3CCCCC2)CC1)N1CCN(c2ccccc2)CC1,inactive: 3.8%
14,CCCNC(=O)Cn1c(=O)cc(C)c2c(C)nn(-c3cccc(F)c3)c21,inactive: 0.619%
15,COc1cc(Cl)c(C)cc1NC(=O)NC1COc2ccccc2C1 (centres undefined),inactive: -7.39%
16,CCc1ccc(-c2ccc3nnc(SCC(=O)Nc4cccc(C(C)=O)c4)n3n2)cc1,inactive: 4.12%
17,COc1ccc(CCNC(=O)CN2C(=O)COc3ccccc32)cc1OC,inactive: -9.92%
18,COc1cccc(CNC(=O)c2ccc(CS(=O)c3ccccc3)o2)c1 (centres undefined),inactive: -9.8%
19,COc1ccc(NC(=O)c2oc3ccccc3c2NC(=O)c2cc(OC)c(OC)c(OC)c2)cc1,inactive: -1.73%
20,COc1ccc(NC(=O)c2c(C)oc3ccc(O)c(CN4CCCC(C)C4)c23)cc1 (centres undefined),active: 61.2%
21,Cc1onc(-c2ccccc2)c1C(=O)Cl,inactive: 24.5%

row,Compound,activation
1,COc1ccc(C2=C(N3CCN(c4cc(Cl)ccc4C)CC3)c3ccccc3C2=O)cc1,inactive: 42.1%
2,CCc1ccccc1NC(=O)C(CCSC)NS(=O)(=O)c1ccc2c(c1)oc(=O)n2C (centres undefined),inactive: -24.6%
3,CCOC(=O)N1CCN(C(=O)c2cnn(-c3cccc(F)c3)c2-n2cccc2)CC1,inactive: -2.43%
4,Cc1ccccc1-c1nn2c(=O)cc(CN3CCN(C(=O)c4ccccc4Br)CC3)nc2s1,inactive: 1.56%
5,N#Cc1c(-c2ccccc2)cc(-c2ccccc2)nc1SCC(=O)Nc1ccc(Cl)cc1,inactive: -14.5%
6,Cc1cccc(Oc2nc3c(c(=O)n(C)c(=O)n3C)n2C)c1C,inactive: 3.85%
7,Oc1c(C(c2ccc(Cl)cc2)N2CCOCC2)sc2nc(-c3ccco3)nn12 (centres undefined),inactive: 3.94%
8,CC1CCN(S(=O)(=O)c2ccc3nc(N4CCN(c5ccccc5)CC4)ccc3c2)CC1,inactive: -0.307%
9,Fc1cccc(CSc2nc(NCCc3ccccc3)c3ccccc3n2)c1,inactive: -17.2%
10,COc1ccccc1OCC(=O)Nc1cc(-c2ccc(C)cc2)no1,inactive: -0.849%
11,COc1cccc([C@H]2Nc3ccc(S(=O)(=O)Nc4cc(C)ccc4C)cc3[C@H]3C=CC[C@H]32)c1,inactive: -37%
12,CC(=O)c1cc(-c2ccc(F)cc2)n(CC(=O)NCc2ccc(C)cc2)c1C,inactive: -7.58%
13,COc1cc(NS(=O)(=O)c2cccs2)cc(OC)c1,inactive: 14.3%
14,Cc1cc(C)c(OCC(=O)Nc2cccc(-c3nc4ncccc4o3)c2)c(Br)c1,inactive: -5.7%
15,O=C(c1ccccc1Cl)N1CCN(CCc2ccccn2)CC1,inactive: 12.3%
16,O=C(CSc1nc(-c2ccco2)nc2cc(=O)[nH]n12)Nc1ccccc1F,inactive: -18.5%
17,COc1cccc(C(=O)Nc2ccccc2-c2nnc(-c3ccc(C(C)(C)C)cc3)o2)c1,inactive: -2.57%
18,COc1ccc2cc3cc(C(=O)Nc4ccccc4C)oc3nc2c1,active: 98.5%
19,COc1ccc(NC(=O)CSc2nc(C)cc(C)c2C(=O)Nc2cccc(C)c2)cc1,inactive: -15.1%
20,CCCOC(=O)c1ccc(Nc2nc3ccccc3nc2-n2nc(C)cc2C)cc1,inactive: -12.4%
21,C[C@@H](NC(=O)CN(c1ccccc1)S(=O)(=O)N(C)C)c1ccccc1,inactive: 7.98%

# Source: PubChem BioAssay AID1346428 (National Center for Advancing Translational Sciences (NCATS), 2018)
